# Measurements: publication PMC4336329 (PLoS ONE, 2015)
# The campaign covered roughly 310,000 compounds. About 14,000 (4.5%) showed an effect of 50% or more. The effect is printed as a negative number. The list shows a part of the results.
# Biological target: human ether-à-go-go-related gene (hERG) potassium channel (human, UniProt Q12809)
# Experiment: primary screen, population patch clamp on CHO cells stably expressing hERG
# 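Further: peak tail current of the secondary pulse compared with the same well before compound.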
# human ether-à-go-go-related gene (hERG) potassium channel, sequence (Q12809 whole entry, looked up): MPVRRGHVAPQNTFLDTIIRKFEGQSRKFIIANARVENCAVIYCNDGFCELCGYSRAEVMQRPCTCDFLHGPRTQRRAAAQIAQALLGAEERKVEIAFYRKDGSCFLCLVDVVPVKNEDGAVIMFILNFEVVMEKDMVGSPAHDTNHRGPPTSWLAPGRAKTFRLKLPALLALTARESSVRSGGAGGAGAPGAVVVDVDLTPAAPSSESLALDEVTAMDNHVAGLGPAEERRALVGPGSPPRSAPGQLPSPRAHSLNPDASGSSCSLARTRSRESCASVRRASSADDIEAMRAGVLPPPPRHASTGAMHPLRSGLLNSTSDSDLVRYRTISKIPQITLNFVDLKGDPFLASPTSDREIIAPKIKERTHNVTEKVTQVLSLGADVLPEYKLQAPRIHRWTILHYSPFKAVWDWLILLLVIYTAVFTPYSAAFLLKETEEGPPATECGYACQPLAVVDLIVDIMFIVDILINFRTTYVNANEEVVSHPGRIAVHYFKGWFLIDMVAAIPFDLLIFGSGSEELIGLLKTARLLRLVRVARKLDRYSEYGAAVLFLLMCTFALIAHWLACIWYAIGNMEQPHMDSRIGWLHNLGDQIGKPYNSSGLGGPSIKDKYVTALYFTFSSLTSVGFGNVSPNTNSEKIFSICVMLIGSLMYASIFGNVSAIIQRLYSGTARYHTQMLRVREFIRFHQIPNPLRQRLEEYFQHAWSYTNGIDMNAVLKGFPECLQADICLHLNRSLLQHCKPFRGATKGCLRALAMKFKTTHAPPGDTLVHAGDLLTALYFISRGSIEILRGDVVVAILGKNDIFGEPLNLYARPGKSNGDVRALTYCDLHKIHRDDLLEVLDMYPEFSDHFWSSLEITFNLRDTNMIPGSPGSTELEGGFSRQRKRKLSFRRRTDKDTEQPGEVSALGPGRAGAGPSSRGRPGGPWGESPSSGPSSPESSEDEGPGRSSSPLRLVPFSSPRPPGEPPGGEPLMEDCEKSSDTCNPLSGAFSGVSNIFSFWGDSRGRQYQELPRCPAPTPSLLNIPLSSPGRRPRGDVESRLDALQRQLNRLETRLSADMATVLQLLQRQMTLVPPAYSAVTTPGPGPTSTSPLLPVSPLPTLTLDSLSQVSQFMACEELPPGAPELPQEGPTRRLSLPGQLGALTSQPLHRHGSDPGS
row,Compound,"hERG current change (%, negative = inhibition) at 10uM"
1,CNc1ccccc1C(C)(C)c1cc(-c2ccc(F)cc2)no1,14.8%
2,CCc1noc(C)c1C(=O)N(CC)CC(=O)Nc1ccccc1C(F)(F)F,4.76%
3,Nc1c(C(=O)c2ccc(Br)cc2)oc2ccccc12,18.4%
4,O=C(O)c1ccc(NC(CSCc2ccc(F)cc2)C(=O)O)c([N+](=O)[O-])c1 (stereo not shown),2.41%
5,O=C(CN1CCN(Cc2ccccc2Cl)C1=O)N1CCCCCC1,2.36%
6,Cc1cccc(NC(=O)/C=C/c2ccc3c(c2)OCO3)n1,19.1%
7,O=C(CSc1n[nH]c(-c2ccccc2)n1)NCc1cccc(C(=O)O)c1,21.4%
8,CCCC(=O)N1CCN(c2ccc(NC(=O)C(C)(C)C)cc2)CC1,7.44%
9,COc1ccc(CCNC(=O)CSc2nnc3ccccn23)cc1,20.8%
10,CCOC(=O)N1CCN(C(=O)c2cnn3c(C(F)F)cc(-c4ccc(C)cc4)nc23)CC1,-0.653%
11,NCCCCCc1cn([C@@H](CCC(=O)O)C(=O)NCCCCCCCCCCC(=O)N2CCNCC2)nn1,15.6%
12,O=c1c2c3c(sc2nc2n1CCC2)CCCC3,10.4%
13,CCOC(=O)c1c(N2C(=O)CC(Sc3ccccc3C(=O)O)C2=O)sc(C)c1C (stereo not shown),7.33%
14,Cc1ccc(-c2cn3cccnc3n2)cc1,-5.77%
15,CN(CC(=O)Nc1ccccc1Sc1ccccc1)Cc1nc2ccccc2c(=O)[nH]1,-37.1%
16,NS(=O)(=O)c1cnccc1Nc1cccc(Br)c1,-1.65%
17,O=c1cc(N2CCOCC2)cnn1-c1ccccc1,3.68%
18,O=C(CSc1cn(CCNC(=O)c2cccs2)c2ccccc12)NCc1ccccc1,-12.5%
19,COc1cccc2cc(C(=O)N3CCC(C)CC3)c(=O)oc12,0.289%
20,CC1CCc2c(sc(/N=C/c3ccco3)c2C(N)=O)C1 (stereo not shown),2.27%
21,CC1(C(=O)OCC(=O)Nc2nnc(-c3ccccc3)o2)CC1(Cl)Cl (stereo not shown),-7.05%
22,O=C(CN(Cc1ccc(F)cc1)C(=O)c1csnn1)NCc1ccccc1,-31.6%
23,COc1cc(SC)ccc1C(=O)NCCc1ccccc1,-29.9%
24,COC(=O)c1cnn(-c2nc(OC)cc(OC)n2)c1C,2.37%
25,O=C(c1ccc(OC2CCN(Cc3ccccc3OC(F)F)CC2)cc1)N1CCCC1,-3.42%
